The list shows a part of the results.

Consider 27 molecules from the antibiotic and cytotoxicity screens of Wong et al. (2023).

The test system of one test is HSkMC. The test is described as follows: cytotoxicity call (relative viability < 0.9). Conditions: 10 µM.
For another test, the system named is HepG2. Put plainly: cytotoxicity call (relative viability < 0.9). The following applies: 10 µM.
For a further test, the system named is S. aureus RN4220. The test is described as follows: growth inhibition call (relative growth <= 0.2). The following applies: 50 µM.

`C[C@@H]1CCCCO[C@H](CN(C)C(=O)Nc2ccc(C(F)(F)F)cc2)[C@@H](C)CN([C@H](C)CO)C(=O)c2cc(NC(=O)Nc3ccccc3)ccc2O1`: the cytotoxicity call in the test with HSkMC and with HepG2 was “inactive” throughout. Besides, the growth inhibition call with S. aureus RN4220 is “inactive”.

With `C[C@H](CO)N1C[C@H](C)[C@H](CN(C)C(=O)c2cc(Cl)cc(Cl)c2)OCc2ccccc2-c2ccccc2C1=O`, the cytotoxicity call in the test with HSkMC and with HepG2 was “inactive” throughout. Moreover, the growth inhibition call with S. aureus RN4220 was “inactive”.

`C[C@@H]1CN([C@@H](C)CO)C(=O)c2cc(NC(=O)Cc3ccccc3)ccc2O[C@@H](C)CCCCO[C@@H]1CN(C)C(=O)NC1CCCCC1`: the cytotoxicity call in the test on HSkMC and with HepG2 was “inactive” throughout. The growth inhibition call with S. aureus RN4220 was “inactive”.

With `COc1ccc(NC(=O)Nc2ccc3c(c2)C(=O)N([C@@H](C)CO)C[C@H](C)[C@H](CN(C)Cc2ccncc2)OCCCC[C@@H](C)O3)cc1`, the cytotoxicity call in the test on HSkMC and with HepG2 was “inactive” in each case. Besides, the growth inhibition call in the test with S. aureus RN4220 was “inactive”.

Turning to `C[C@@H]1CN([C@H](C)CO)C(=O)Cc2cc(NC(=O)CCN3CCOCC3)ccc2O[C@@H]1CN(C)C(=O)Nc1ccc(F)cc1`, the cytotoxicity call with HSkMC and with HepG2 was “inactive” throughout. In addition, the growth inhibition call in the test with S. aureus RN4220 was “inactive”.

With `C[C@H](CO)N1C[C@H](C)[C@H](CN(C)C(=O)Cc2ccccc2)OCCCC[C@H](C)Oc2ccc(NC(=O)Nc3ccccc3)cc2C1=O`, the cytotoxicity call in the test with HSkMC and in the test on HepG2 was “inactive” each time. Further, the growth inhibition call in the test with S. aureus RN4220 is “inactive”.

In the case of `C[C@@H]1CCCCO[C@H](CN(C)Cc2ccc(C(F)(F)F)cc2)[C@H](C)CN([C@H](C)CO)C(=O)c2cc(NS(=O)(=O)c3ccc(F)cc3)ccc2O1`, the cytotoxicity call in the test with HSkMC and in the test with HepG2 was “inactive” each time. The growth inhibition call in the test on S. aureus RN4220 is “inactive”.

Turning to `C[C@@H]1CCCCO[C@@H](CN(C)C(=O)Nc2ccc(C(F)(F)F)cc2)[C@@H](C)CN([C@H](C)CO)C(=O)c2cc(NC(=O)NC3CCCCC3)ccc2O1`, the cytotoxicity call in the test on HSkMC and in the test on HepG2 was “inactive” in each case. Besides, the growth inhibition call in the test on S. aureus RN4220 is “inactive”.

For the molecule `C[C@H]1CCCCO[C@H](CN(C)S(=O)(=O)c2ccc(F)cc2)[C@@H](C)CN([C@@H](C)CO)C(=O)c2cc(NC(=O)Nc3ccc(C(F)(F)F)cc3)ccc2O1`, the cytotoxicity call in the test on HSkMC and with HepG2 was “inactive” throughout. In the test on S. aureus RN4220, the growth inhibition call is “inactive”.

With `C[C@H](CO)N1C[C@H](C)[C@H](CN(C)C(=O)C2CCOCC2)Oc2cc(C#Cc3ccncc3)ccc2S1(=O)=O`, the cytotoxicity call in the test with HSkMC and in the test on HepG2 was “inactive” throughout. Further, in the test with S. aureus RN4220, the growth inhibition call was “inactive”.

For `C[C@H](CO)N1C[C@H](C)[C@@H](CN(C)Cc2ccc(C(=O)O)cc2)Oc2ccc(NS(=O)(=O)c3cn(C)cn3)cc2CC1=O`, the cytotoxicity call in the test with HSkMC and in the test with HepG2 was “inactive” in each case. Besides, the growth inhibition call in the test with S. aureus RN4220 is “inactive”.

In the case of `O=C(C[C@@H]1CC[C@@H](NC(=O)Cc2ccccn2)[C@@H](CO)O1)NCCc1ccncc1`, the cytotoxicity call with HSkMC and in the test with HepG2 was “inactive” each time. In addition, the growth inhibition call in the test with S. aureus RN4220 is “inactive”.

As to `Cc1nnc(C(C)C)n1C1C[C@H]2CC[C@@H](C1)N2CC[C@H](NC(=O)C1CCC(F)(F)CC1)c1ccccc1` (some centres not stated), the cytotoxicity call with HSkMC and with HepG2 was “inactive” throughout. Moreover, the growth inhibition call in the test with S. aureus RN4220 was “inactive”.

Consider `C=CC(=O)NC(C)(C)CCN1CCOCC1`, for which the cytotoxicity call in the test on HSkMC and with HepG2 was “inactive” each time. Further, the growth inhibition call with S. aureus RN4220 is “inactive”.

Consider `C[C@@H]1CN([C@H](C)CO)C(=O)c2cccc(NS(C)(=O)=O)c2O[C@H]1CN(C)Cc1ccc(C(=O)Nc2ccccc2N)cc1`, for which the cytotoxicity call with HSkMC and with HepG2 was “inactive” in each case. Also, the growth inhibition call with S. aureus RN4220 is “inactive”.

Consider `CCS(=O)(=O)NCC[C@H]1CC[C@H](NC(=O)C2CCOCC2)[C@@H](CO)O1`, for which the cytotoxicity call with HSkMC and in the test on HepG2 was “inactive” in each case. Further, the growth inhibition call in the test on S. aureus RN4220 was “inactive”.

As to `CC(C)[Si](C#C[Si](C(C)C)(C(C)C)C(C)C)(O[C@H](C)c1cn([C@H](C)c2ccccc2)nn1)C(C)C`, the cytotoxicity call in the test with HSkMC and with HepG2 was “inactive” throughout. In addition, in the test on S. aureus RN4220, the growth inhibition call is “inactive”.

In the case of `S=P(N1CC1)(N1CC1)N1CC1`, the cytotoxicity call in the test on HSkMC is “inactive”. In the test on S. aureus RN4220, the growth inhibition call was “inactive”.

Regarding `C1N2CN3CN1CN(C2)C3`, in the test on HSkMC, the cytotoxicity call was “inactive”. The growth inhibition call in the test on S. aureus RN4220 is “inactive”.

For `C[C@@H]1CN([C@@H](C)CO)C(=O)c2cc(NC(=O)C3CCCCC3)ccc2O[C@@H](C)CCCCO[C@@H]1CN(C)Cc1ccc(C(=O)O)cc1`, the cytotoxicity call with HSkMC and with HepG2 was “inactive” throughout. The growth inhibition call with S. aureus RN4220 was “inactive”.

For `COc1ccc2c3c(n(c2c1)C)[C@@H](CO)N(C[C@]13CCN(CC1)C(=O)c1ccncc1)C(=O)C1CCC1`, the cytotoxicity call in the test on HSkMC and in the test with HepG2 was “inactive” each time. Also, the growth inhibition call in the test on S. aureus RN4220 is “inactive”.

Take `COc1nn(C)cc1C(=O)NC1=NCCS1`: the cytotoxicity call in the test with HSkMC and with HepG2 was “inactive” in each case. For the same molecule, in the test on S. aureus RN4220, the growth inhibition call is “inactive”.

With `OCC(O)CO`, the cytotoxicity call in the test on HSkMC is “inactive”. The growth inhibition call with S. aureus RN4220 was “inactive”.

As for `OCc1ccccc1O`, the cytotoxicity call in the test with HSkMC was “inactive”. Further, the growth inhibition call in the test with S. aureus RN4220 was “inactive”.

In the case of `C=CCN(C(=O)[C@H]1N(c2ccc(CCO)cc2)C(=O)[C@H]2[C@H](C(=O)O)[C@@H]3C=C[C@@]21O3)c1ccc(OC)cc1`, the cytotoxicity call in the test on HSkMC (human skeletal muscle cells) and in the test with HepG2 was “inactive” throughout. The growth inhibition call in the test on S. aureus RN4220 is “inactive”.

On to `C[C@@H]1CN([C@H](C)CO)C(=O)c2cc(NC(=O)NC3CCCCC3)ccc2O[C@@H](C)CCCCO[C@@H]1CN(C)C(=O)Nc1ccc(F)cc1`, for which the cytotoxicity call in the test with HSkMC and with HepG2 was “inactive” throughout. For the same molecule, in the test on S. aureus RN4220, the growth inhibition call is “inactive”.

On to `C[C@@H]1CN([C@H](C)CO)C(=O)c2cccc(NS(=O)(=O)c3ccccc3)c2O[C@@H]1CN(C)Cc1ccc(-c2ccccc2)cc1`, for which the cytotoxicity call with HSkMC is “inactive”. Further, in the test on HepG2, the cytotoxicity call is “active”. Besides, the growth inhibition call in the test on S. aureus RN4220 is “inactive”.
